Results published in the supplement of paper PMC3334620.
In all, about 33,000 sequences were measured (“E-score (-0.5 to 0.5)”: median about -0.01, highest 2% from about 0.26 on). The list shows a part of the results.

Biological target: Ste12 (UniProt P13574)
Assay: PBM E-score (8-mer binding enrichment) (E-score (-0.5 to 0.5)); higher = stronger / more preferred TF binding; most listed sequences are background and not binding sites
Conditions: protein concentration: 200 nM; construct: GST-DNA-binding domain
Summary of the method: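 E-scores (a modified Wilcoxon-Mann-Whitney statistic) were assigned by the Universal PBM Analysis Suite to every ungapped eight-base word pooled with its reverse complement. The input came from universal all-10-mer Agilent arrays made double-stranded by primer extension and probed with GST-tagged yeast transcription factors at about 100-200 nM. Fluorescent anti-GST detected bound protein, and masliner normalised the scans.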

Row | Sequence | PBM E-score
1 | AGGGAAGA | -0.237
2 | AGCCGTCG | -0.0558
3 | CATGTAGG | -0.105
4 | ATGGATAA | 0.121
5 | AGGGAATC | -0.21
6 | ATAACGAT | 0.0265
7 | GACTATTA | 0.13
8 | TTTAAAAA | 0.184
9 | AGGAAAAC | -0.0394
10 | CTCACTGC | -0.257
11 | ATGGCAGC | 0.0325
12 | GAAACGTC | 0.303
13 | ATGGTCTA | -0.163
14 | CCAATAGG | -0.0766
15 | CTATTAGA | -0.166
16 | TCTGAACA | 0.0453
17 | ATACAGAT | 0.0655
18 | AAATATCA | 0.238
19 | CCCGATAC | 0.031
20 | GTGCCAAA | -0.0321
21 | AAGTTACC | 0.0128
22 | CCGGCCCA | -0.203
23 | CTACGAAC | -0.148
24 | AAGGGTTG | 0.0867
25 | ACTAGTCA | -0.171

Row | Sequence | PBM E-score
26 | CTCGCATA | -0.0282
27 | CGGCGAAC | 0.0131
28 | ATTCAAAA | 0.118
29 | TGATGCCA | -0.182
30 | CGGTTGTA | -0.21
31 | GTGTGCGA | -0.061
32 | CGGTCGAC | -0.0905
33 | GTTGAGGA | 0.0908
34 | AAAATAAA | 0.286
35 | CCGCATTA | 0.0736
36 | ATACCCTC | -0.0306
37 | ATCGAGTA | -0.0649
38 | AGTTATGA | 0.0754
39 | CTTTGTGC | -0.0467
40 | TCCACTCA | -0.132
41 | CGCGGCGA | 0.126
42 | AACGGACG | -0.0491
43 | ATGTTCTC | -0.124
44 | CTACTTTC | -0.0458
45 | AGCCGGGA | 0.0148
46 | ATGTCAGC | -0.0606
47 | ACGGTTCT | -0.0453
48 | CTTTAACA | 0.144
49 | GTTAATTA | 0.186
50 | AGAGTGAT | -0.166

Row | Sequence | PBM E-score
51 | CTACGGTA | -0.0646
52 | AAACACAG | 0.118
53 | CCCGTTAC | 0.0981
54 | TCGTCAAA | 0.184
55 | AAGCTCCG | -0.031
56 | AGCGAAGA | 0.00299
57 | TCGGTCCA | -0.021
58 | GTACTGTA | -0.0841
59 | ATGGCGAC | -0.207
60 | ACTAATAG | 0.0525
61 | AAACTGAC | -0.00654
62 | GATTTTCC | 0.113
63 | CTCTTCAA | 0.0571
64 | ACGAACTA | 0.0471
65 | AAACTGTC | 0.0936
66 | ATCCCCTC | 0.303
67 | CGTACGAA | 0.131
68 | CTTGTTAA | 0.0962
69 | AACTGCCT | 0.0264
70 | AAACTGCT | 0.00125
71 | CCTGCTTA | -0.142
72 | CTGCTGTA | -0.0791
73 | GAGATGTA | 0.0232
74 | GAAGAAGA | -0.00959
75 | CGGGGTGC | -0.0698

Row | Sequence | PBM E-score
76 | AAGGGCTC | -0.334
77 | CACTCATA | 0.112
78 | CGATGCCA | -0.141
79 | AATTGTTG | 0.112
80 | GATAAAGA | 0.0926
81 | ACAGATTG | -0.0707
82 | GTGACTCA | -0.0887
83 | ACCACCTG | 0.0688
84 | GCAGTCAC | -0.153
85 | CAAACCGC | 0.00675
86 | ACGCGCAA | 0.241
87 | AATCAAGT | -0.0217
88 | AACTATGT | -0.0705
89 | ACTAGAAT | 0.277
90 | ACCAGGGA | -0.169
91 | CCGGGGAG | 0.0943
92 | ACTTCCAA | 0.0619
93 | ATGCACAT | -0.00451
94 | ATTTGTCA | 0.103
95 | ATGTAAGA | 0.15
96 | ACACGACG | -0.154
97 | CCGTAACA | 0.149
98 | CGGCTGGC | -0.117
99 | AGCATTTG | 0.0384
100 | AAAGAAGG | -0.0585

Row | Sequence | PBM E-score
101 | GCGAAAGC | -0.133
102 | AGTACAGG | -0.0362
103 | ATAATGTC | 0.112
104 | AACGATTC | -0.0106
105 | ACTTTCGG | -0.0381
106 | CAAGTCGG | -0.0893
107 | GTAGGCAC | -0.143
108 | CTACACAG | -0.123
109 | CCATCCGG | -0.0221
110 | CGATATAA | 0.124
111 | AGAATTGG | -0.00675
112 | CCGGAAAA | 0.194
113 | ACCAATGC | -0.0379
114 | AATTTGGA | 0.0607
115 | CAAAGTAA | 0.125
116 | ACTTCAAA | 0.082
117 | ACCCTTCG | -0.0954
118 | AGTATTCA | 0.0882
119 | TCATCCCA | 0.0235
120 | GACTCTAA | 0.115
121 | CCAGTAAA | 0.116
122 | AGGCTGCG | -0.101
123 | CCTGGGCC | 0.0535
124 | TAATTTCA | 0.239
125 | ACCGAGTG | -0.197

Row | Sequence | PBM E-score
126 | TCATAAGA | 0.12
127 | CGCGGTAC | -0.0101
128 | TACATCCA | -0.0746
129 | AATGCAGC | -0.255
130 | GGGGCATA | -0.0113
131 | ACCAAAAG | 0.13
132 | CCGGATAG | -0.0141
133 | GCATCAAC | 0.109
134 | AAAATTTA | 0.085
135 | CCTGTAAG | -0.136
136 | ACTTCCCA | -0.102
137 | ACGCCCGA | -0.011
138 | CGAAAAAG | 0.212
139 | CTAGGTGC | -0.165
140 | CGGCCGAC | -0.0134
141 | ACAGAGAA | 0.127
142 | ACTGGCGG | 0.0599
143 | GTAAGTCA | -0.104
144 | TATTGAGA | 0.214
145 | CCTTTAAG | -0.229
146 | ACCGGCGG | 0.0198
147 | CGACCGGA | 0.0132
148 | GTGGAAGA | -0.173
149 | TGACTCCA | -0.136
150 | TTAATAAA | 0.344

Row | Sequence | PBM E-score
151 | CACGTAGC | -0.239
152 | CATGAACC | 0.106
153 | GAATTGGA | 0.0509
154 | CGTTGCCC | -0.185
155 | CCCCTAAG | -0.112
156 | GTACTTAA | -0.0414
157 | CACAGGTC | -0.215
158 | ATAGGCCG | -0.293
159 | ATACAAAC | 0.18
160 | CACGTTCG | -0.173
161 | CTAGGAGA | -0.177
162 | AACCGCGT | 0.117
163 | GAGACCGA | -0.106
164 | CAACGTCA | -0.125
165 | TCCAAAAA | 0.23
166 | AGCCTGCC | -0.0832
167 | GGCGCCGA | 0.0102
168 | AACGAACA | 0.22
169 | ACTCCTGG | -0.166
170 | CCGATACG | -0.0585
171 | CCGTCAGG | -0.197
172 | AAGACTTC | -0.141
